Results taken from the supplement of paper PMC3334620.
The full ranking holds about 33,000 sequences; the median of “E-score (-0.5 to 0.5)” is about -0.01, and the highest 2% start at about 0.26. Some of the results follow.

Target: Ste12 (UniProt P13574)
Test: PBM E-score (8-mer binding enrichment) (E-score (-0.5 to 0.5)); higher = stronger / more preferred TF binding; most listed sequences are background and not binding sites
Details: protein concentration: 200 nM; construct: GST-DNA-binding domain
Procedure, shortened: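 Universal all-10-mer Agilent arrays, fresh or stripped once, were converted to double-stranded form by primer extension. GST-tagged yeast transcription factors from PURExpress in vitro transcription/translation, full-length or DNA-binding domain only, were applied at about 100-200 nM and detected with fluorescent anti-GST. After masliner normalisation, the Universal PBM Analysis Suite scored each ungapped eight-base word together with its reverse complement by E-score.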

| Sequence | PBM E-score |
| --- | --- |
| GTTCCGGA | -0.0664 |
| AGAGGATA | -0.0799 |
| GAATTTCC | 0.235 |
| ATCAGGCC | -0.0451 |
| GAGCGCAC | -0.253 |
| GTCATATA | 0.176 |
| CGTATACG | -0.0983 |
| AACTAGAC | 0.16 |
| AGCTCGAG | -0.0355 |
| AAGTCGGA | -0.0725 |
| AATCAGAT | -0.172 |
| TGCCGCCA | -0.121 |
| GAAGGAAC | -0.0697 |
| GTGAACTA | -0.0279 |
| CTCTCGAA | 0.0296 |
| AAAAATAC | 0.25 |
| ACAAACTC | 0.136 |
| ACCTACGG | -0.38 |
| CGGAAGAG | -0.133 |
| GGATATGA | 0.127 |
| AAGAGTTG | -0.149 |
| AGTATGCA | -0.191 |
| GCGGACAA | 0.106 |
| CTCTACCA | -0.0377 |
| AGTAGTGA | -0.0994 |

| Sequence | PBM E-score |
| --- | --- |
| AGAGGGAT | -0.0268 |
| AGGGAGGG | 0.305 |
| GGCTATCA | -0.0607 |
| CACTCGAA | -0.0764 |
| GTTCCAAC | 0.202 |
| ACTCGCTG | -0.0227 |
| ACCTCAGG | -0.154 |
| ACCAATCG | 0.12 |
| AGAATGAC | -0.00728 |
| CACCCGGC | -0.299 |
| GTCCGGAC | 0.0923 |
| CTCGCCAG | -0.15 |
| AAGTGAAT | 0.0898 |
| CAGTCTTC | -0.0828 |
| TAGTTACA | 0.0123 |
| CAGAGGCG | -0.109 |
| ATAAAGGA | -0.0629 |
| GTAGCTGA | -0.127 |
| CGAAGGTA | 0.00911 |
| GCACAGAC | 0.00035 |
| ACATTTGG | 0.115 |
| CCCCGTCG | -0.0224 |
| AGACACAT | -0.0224 |
| AAAAGAAC | 0.126 |
| CTCGATAA | 0.0982 |

| Sequence | PBM E-score |
| --- | --- |
| AAAATAAT | 0.293 |
| CGGTATGC | -0.222 |
| AGACACAG | -0.124 |
| CACCACGA | -0.0713 |
| ACGGCATG | -0.107 |
| CAGTATGA | 0.0511 |
| CTGGTTGA | -0.179 |
| GGAAGCTA | -0.0367 |
| AGTAGCGA | -0.169 |
| AGTCCGGA | -0.0502 |
| CCAATAAA | 0.148 |
| GACCTGTA | -0.01 |
| CTTTAAGA | 0.158 |
| GAGCGACA | 0.0587 |
| GCTGAGCA | -0.15 |
| GAAAGTGC | -0.209 |
| GTTAACCA | 0.0343 |
| CACAGTAA | 0.155 |
| GCCCGCCC | 0.257 |
| ACTCACAT | -0.0517 |
| ATTATTCC | 0.172 |
| GTGCAAGA | -0.145 |
| ATGTGACG | -0.0421 |
| ACCGTTCA | -0.0688 |
| ACGCAGAC | -0.124 |

| Sequence | PBM E-score |
| --- | --- |
| ATGGGTGG | -0.0567 |
| GAATACCC | -0.00671 |
| CGCCAGAC | -0.0884 |
| ACAAGTAA | 0.073 |
| CAGACTCC | -0.121 |
| CTTTATAC | 0.0886 |
| CATCCGCC | -0.00736 |
| AGGCTGGA | -0.218 |
| ACACGATC | 0.0346 |
| ACTAATCT | -0.0562 |
| ATGACCTA | -0.0243 |
| CGCGCCCC | 0.0693 |
| CCGTCATC | -0.166 |
| ATGATTCA | 0.112 |
| AGATTAGA | 0.00999 |
| GAGCTGCA | -0.167 |
| AAGTTCGT | -0.226 |
| CTGGTCTA | -0.0201 |
| GCCGACTA | 0.0127 |
| AGTAGAAT | 0.171 |
| ACCGCTTG | 0.0177 |
| CAACGGGA | 0.0118 |
| CGACATCC | -0.064 |
| AAGGCAAA | 0.186 |
| ACGTTCTA | 0.0462 |

| Sequence | PBM E-score |
| --- | --- |
| AGATTTCC | -0.00453 |
| AACAGGAG | 0.0417 |
| CGCGTGAC | -0.00653 |
| GTGGTACA | -0.165 |
| TCGCGAAA | 0.205 |
| CCGCATCG | -0.0263 |
| TACGAGAA | 0.0731 |
| TGAAATAA | 0.23 |
| CTAAAATC | 0.104 |
| GCTTTTAA | -0.0048 |
| AGACGAGC | -0.255 |
| GCCTCCAA | -0.0652 |
| CCATGACG | -0.11 |
| GCCGGAGA | 0.0583 |
| CTGCGCTA | -0.0645 |
| AGGCACAC | -0.187 |
| GATAAGCA | 0.0471 |
| ACGCAGCA | -0.157 |
| CATCTGAG | -0.0898 |
| AGGGGTGC | -0.124 |
| AGCTTCGG | 0.0665 |
| ATGATTGC | 0.146 |
| CACTATCG | -0.0737 |
| TGATGGCA | -0.0712 |
| CGATACTA | 0.197 |

| Sequence | PBM E-score |
| --- | --- |
| CCTCGAGG | 0.0346 |
| CTTCCGGC | 0.00793 |
| CTCCGCAA | -0.0934 |
| AGAAGATA | 0.0537 |
| CGTTTATA | 0.139 |
| CCATTAAA | 0.0806 |
| CACTGGCC | -0.179 |
| ACTCTCGG | -0.0433 |
| TCCGAAAA | 0.145 |
| ACCCTGAG | -0.0628 |
| GACGCACA | -0.0101 |
| ATAACTAG | 0.146 |
| CTATGATC | -0.152 |
| ACACCTCA | 0.0497 |
| ACCGGCTC | -0.175 |
| CCAGGTTA | -0.00715 |
| GTTCAAAA | 0.107 |
| GAATCGGC | 0.0405 |
| CAAAGACC | 0.0599 |
| CACCCATA | 0.105 |
| GATGGACA | 0.0404 |
| GTGAGAGA | -0.0522 |
| ACGTGACC | -0.126 |
| GATATACC | -0.118 |
| AAACTTCC | -0.0123 |

| Sequence | PBM E-score |
| --- | --- |
| GATGTGAA | 0.236 |
| AACGCGTT | 0.17 |
| GTTCCCCA | -0.0568 |
| TAGGAACA | -0.0772 |
| CGTTTGAG | 0.111 |
| CCACACGA | -0.236 |
| AAACGAAA | 0.248 |
| AAGCTCAG | -0.179 |
| TAAGCTCA | -0.18 |
| CATAACGC | 0.0909 |
| CATAGCGC | 0.0106 |
| GAACTTCC | -0.12 |
| AGATATCA | 0.192 |
| TGGTATAA | 0.0918 |
| AATCGCGC | 0.0772 |
| AAAATTCG | 0.215 |
| ACCCTTAT | -0.0679 |
| CCCCCGGA | -0.0868 |
| CGCGGTGA | 0.14 |
| GAAGCAAC | -0.0343 |
| GCGAAATA | 0.0494 |
| AACGCGTC | 0.0997 |
| AAAACATC | 0.301 |
| CAACAGAG | 0.0388 |
| CCATACCC | 0.128 |

| Sequence | PBM E-score |
| --- | --- |
| CGGAGACA | -0.0644 |
| CTGTGGGC | -0.0734 |
| GGCACCGA | -0.16 |
| AGGAGGGC | -0.081 |
| CTGGGAGC | -0.309 |
| CCATTCCA | -0.0508 |
| CGAATCAG | -0.0178 |
| ACACTCGT | -0.165 |
| CTCATCTA | -0.0777 |
| TACCGGGA | 0.109 |
| AGTACAGA | 0.0239 |
| AACATTAA | 0.301 |
| CGCGATTC | 0.103 |
| AGATCACC | -0.151 |
| ACCGCATC | 0.0773 |
| CCACTGAG | -0.197 |
| GATCCAAA | 0.169 |
| TACTACTA | 0.127 |
| AGCACTGG | -0.0847 |
| AGTCCGAG | -0.141 |
| ACAACCAT | 0.173 |
| AGCTCACC | 0.0193 |
| GATTTACC | 0.15 |
| CTAGCTAC | -0.254 |
| ATGGCAAT | -0.0437 |

| Sequence | PBM E-score |
| --- | --- |
| GACCGGGA | -0.0286 |
| GTAATTGA | 0.0832 |
| AACAAGCT | 0.0833 |
| GTTTGGGA | 0.189 |
| CCACCCGC | 0.0265 |
| ACACCACT | 0.008 |
| AATGTCCA | -0.0659 |
| CAAATTCA | 0.0763 |
| GATAGTGC | -0.109 |
| ACTAATGG | 0.147 |
| CGGCGCCA | -0.00942 |
| ACGCCCCG | 0.103 |
| CCTGACAC | 0.161 |
| CAGAGCCG | -0.0185 |
| GATTCAAA | 0.26 |
| CATCCCAC | -0.0354 |
| AGTGTGTA | 0.055 |
| GAGTTATC | -0.0269 |
| CACCTTTA | -0.0515 |
